Laboratory results taken from the supplement of paper PMC12645437, “Orthogonal IMiD-Degron Pairs Induce Selective Protein Degradation in Cells” (ACS Chemical Biology, 2025).
The other results are listed elsewhere or left out.

Target: no compound (DMSO)
Experiment: log2 fold change of degron read counts, EGFP-low vs EGFP+ sorted cells; higher = lower degron-EGFP level without compound (poor expression or instability)
Conditions: compound: DMSO control; 18 h
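Further: jurkat cells carrying a lentiviral library of mutant zinc finger degrons fused to EGFP plus mCherry, mCherry+ cells FACS sorted, degron abundance counted by next-generation sequencing.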

Sequence | log2 fold change of degron read counts
FDCEICGHGFTQKGNLLRHIKL | -0.622
FVCNQCGRMFTQKGNLLRHIKL | -0.397
FWCPQCGAPFTQKGNLLRHIKL | 0.609
FICDICGANFTQKGNLLRHIKL | -1.41
FDCEICGRVFTQKGNLLRHIKL | -1.35
FKCPVCGANFTQKGNLLRHIKL | -0.248
FMCPICGAMFTQKGNLLRHIKL | 0.253
FRCPICGATFTQKGNLLRHIKL | -0.363
FGCDVCGALFTQKGNLLRHIKL | -1.04
FYCDQCGAEFTQKGNLLRHIKL | -1.43
FGCPQCGACFTQKGNLLRHIKL | -0.911
FLCEICGHCFTQKGNLLRHIKL | -1.34
LSCEICGFRCTQKGNLLRHIKL | -0.119
FGCNICGADFTQKGNLLRHIKL | 0.0669
FTCDQCGACFTQKGNLLRHIKL | -1.17
FICEICGRQFTQKGNLLRHIKL | -0.902
FYCDVCGAKFTQKGNLLRHIKL | -1.04
FACNVCGAFFTQKGNLLRHIKL | -0.0174
FGCDQCGAKFTQKGNLLRHIKL | -1.85
FQCNQCGRNFTQKGNLLRHIKL | -0.528
FNCNQCGAGFTQKGNLLRHIKL | -0.527
FDCPVCGAHFTQKGNLLRHIKL | -1.03
FRCSVCGHGFTQKGNLLRHIKL | 0.234
FLCEICGAVFTQKGNLLRHIKL | -1.09
FCCEICGANFTQKGNLLRHIKL | -1.48

Sequence | log2 fold change of degron read counts
FTCSVCGHVFTQKGNLLRHIKL | -0.881
LMCNQCGFCCTQKGNLLRHIKL | 0.8
LFCEICGFPCTQKGNLLRHIKL | 1.04
LLCPICGFMCTQKGNLLRHIKL | 0.927
FDCPICGHSFTQKGNLLRHIKL | -1.34
FWCPICGAPFTQKGNLLRHIKL | 1.54
FECNQCGANFTQKGNLLRHIKL | -2.42
FACEQCGAEFTQKGNLLRHIKL | -2.25
FFCNICGANFTQKGNLLRHIKL | 0.00129
FGCDICGALFTQKGNLLRHIKL | -0.494
FMCDICGATFTQKGNLLRHIKL | -1.9
FKCPICGATFTQKGNLLRHIKL | -1.17
FRCDICGAQFTQKGNLLRHIKL | -0.732
FECEICGARFTQKGNLLRHIKL | -1.24
FDCNQCGRVFTQKGNLLRHIKL | 0.539
FGCNQCGRNFTQKGNLLRHIKL | 0.602
FCCPICGRMFTQKGNLLRHIKL | -0.107
LTCEICGFACTQKGNLLRHIKL | 0.111
FSCDVCGASFTQKGNLLRHIKL | -2.06
FQCPICGACFTQKGNLLRHIKL | 0.29
FSCPICGAFFTQKGNLLRHIKL | 0.485
LWCNQCGFKCTQKGNLLRHIKL | 1.79
FFCNICGAVFTQKGNLLRHIKL | 0.676
FCCPICGRQFTQKGNLLRHIKL | -0.239
FCCNICGAHFTQKGNLLRHIKL | -0.497
